The whole screen tested about 340,000 compounds, of which about 12,000 (3.5%) were called active. This list was built around the results that the source calls inconclusive (neither active nor inactive); the mix of calls is not that of the screen. Calls come from the whole dose curve; as a rule, active = well fitted inhibition curve with a large enough effect; inconclusive = small, poorly fitted or top-dose-only effect, or another doubt; inactive = no such curve, though single readings can be large or run the other way. Potencies of inconclusive entries are left out as doubtful fits.
Experiment: qHTS Assay for Inhibitors of Hepatitis C Virus (HCV)
Conditions: Huh7.5.1 HCVcc-Cre (HCVcc is cell-culture hepatitis C virus) infection, luciferase reporter, 44 h; activity change, negative = inhibition: at 41.8 µM (top of the series) unless noted
Outline: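 Whole-lifecycle infectious HCVcc-Cre system; cells 1,000/well, compound then virus (~0.5 moi) added 4 h after plating, 44 h culture. Luciferase read 15 sec following 15 min substrate incubation, room temp.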
% is set by controls: 0 for no effect and ±100 for the full control effect; potency is the fitted concentration of half-maximal effect; tags give direction and shape of the fitted curve.

SMILES	Potency	activity change, negative = inhibition
CN(Cc1ccccc1)C(=O)C1CCC(CNS(=O)(=O)c2cccc3cccnc23)CC1 (centres undefined)	inconclusive [inhibitor, single point]	
CCOc1ccc(OCc2ccc(C(=O)Nc3cccnc3)cc2)cc1	inconclusive [inhibitor, single point]	
COc1ccc(CN2CCN(Cc3c[nH]c4ccccc34)CC2CCO)c(F)c1 (centres undefined)	inconclusive [inhibitor, single point]	
Cc1ccc(-c2nn(-c3ccc(F)cc3)cc2C(=O)NC2CCC(O)CC2)cc1 (centres undefined)	inconclusive [inhibitor, single point]	
CC(C)(O)c1cc2ccc(C#CCCN3C(=O)c4ccccc4C3=O)cc2c(=O)o1		inactive: 12%
COc1ccc(CS(=O)(=O)CC2(O)CCN(C(=O)c3cccc(C(F)(F)F)c3)CC2)cc1		inactive: -2.72%
CCn1c(=O)n(CC)c2cc(N3CCCC3)c(NC(=O)c3c(F)cccc3F)cc21	inconclusive [inhibitor, partial curve, poor fit]	
O=C(CSc1n[nH]c(-c2ccccc2)n1)c1ccc(O)c(O)c1	inconclusive [inhibitor, single point]	
COc1cccc(C2CC(=O)Nc3cc4c(cc32)CCC4)c1 (centres undefined)	inconclusive [inhibitor, partial curve]	
O=C(N/N=C/c1cccc(O)c1)c1ccc(NC(=O)c2cccc([N+](=O)[O-])c2)cc1	inconclusive [inhibitor, partial curve]	
O=C(Nc1nccs1)c1ccc(COc2ccccc2Br)o1	active: 11.2 µM	
Fc1ccc(COc2ccc(Cl)cc2/C=N/Nc2nc(N3CCCC3)nc(N3CCCC3)n2)cc1	inconclusive [inhibitor, partial curve]	
COc1ccc(C2=NN(C(=O)CSc3nnc(-c4ccccc4F)o3)C(c3ccco3)C2)cc1 (centres undefined)		inactive: 0.251%
CC1CN(c2ncnc3c2c(-c2ccccc2)cn3-c2ccc(F)cc2)CC(C)O1 (centres undefined)	active: 10 µM	
S=C1SCN(CCN2CCOCC2)CN1Cc1ccccc1	inconclusive [inhibitor, single point]	
Cc1ccc(NC(=O)c2cccc(OCc3c(C)noc3C)c2)cc1S(=O)(=O)Nc1ccccc1Cl	inconclusive [inhibitor, single point]	
O=C(CN1CCCCC1)Nc1cccc(Oc2ccccc2)c1		inactive: -3.84%
O=C(O)CCC(=O)N1N=C(c2c(-c3ccccc3)c3cc(Cl)ccc3[nH]c2=O)CC1c1cccs1 (centres undefined)		inactive: 22.4%
COc1ccc(CC(=O)NNC(=O)CCc2ccccc2)cc1OC		inactive: 22.1%
CC(C)CCn1nc(C(=O)Nc2nc3c(s2)CCCC3)c2ccccc2c1=O	inconclusive [inhibitor, single point]	
CCC(C)(C)NC(=O)C(c1ccncc1)N(C(=O)Cn1nnc2ccccc21)c1cc2c(cc1C(C)=O)OCO2 (centres undefined)		inactive: 1.81%
Cc1ccc(N(CC(=O)Nc2cccc(N(C)S(C)(=O)=O)c2)S(C)(=O)=O)cc1		inactive: -11.3%
Fc1ccc(Nc2nc(-c3cccnc3)cs2)cc1	inconclusive [inhibitor, partial curve]	

SMILES	Potency	activity change, negative = inhibition
COc1cc(/C=C/C(=O)O)cc(S(=O)(=O)Nc2ccc3nc(SC)sc3c2)c1OC		inactive: 5.15%
C#CCOCCOCCOCCNc1nc(N2CCN(C(=O)[C@H](CCCN=C(N)N)n3cc(C(N)[C@@H](C)CC)nn3)CC2)nc(N2CCN(C(=O)[C@H](CC(N)=O)n3cc([C@@H](N)C(C)C)nn3)CC2)n1 (some centres undefined)	inconclusive [inhibitor, single point]	
O=C(CCNS(=O)(=O)c1ccccc1)NCCCSc1ccccc1		inactive: -26.6%
N/C(=N/OC(=O)c1cccc([N+](=O)[O-])c1)c1cccc([N+](=O)[O-])c1	inconclusive [inhibitor, single point]	
CCc1nnc2c(N(C)C)nc3ccccc3n12	inconclusive [inhibitor, single point]	
Cc1ccc(NS(=O)(=O)c2ccc(C(=O)N3CCOCC3)cc2)cc1	inconclusive [inhibitor, partial curve]	
Cc1cccc2cc(CN(CCCN(C)C)C(=S)NCCc3ccccc3)c(=O)[nH]c12	inconclusive [inhibitor, single point]	
CC(C)Sc1nc2ccc(N3C(=O)C4CCCCC4C3=O)cc2s1 (centres undefined)		inactive: 2.11%
COCCn1c(SCC(=O)Nc2ccc(Cl)c(S(=O)(=O)N(C)C)c2)nc2ccccc21	inconclusive [inhibitor, single point]	
CC(C)(C#CCN1CCCC1)OCCC#N	inconclusive [inhibitor, single point]	
Cc1ccc2nsnc2c1NC(=O)Cc1ccc(Cl)cc1		inactive: -6.91%
C(=N\Nc1nc(Nc2ccccc2)nc(Nc2ccccc2)n1)/c1cccnc1	inconclusive [inhibitor, single point]	
Cc1ccc(S(=O)(=O)N(c2cccc(C(F)(F)F)c2)C2C=CS(=O)(=O)C2)cc1 (centres undefined)	active: 10 µM	
COc1ccc(-c2cc(C(=O)N(C)Cc3ccccc3)c3ccccc3n2)cc1	inconclusive [inhibitor, partial curve]	
CN1CCC=C(C(=O)N2c3ccccc3Sc3ccc(Cl)cc32)C1	inconclusive [inhibitor, single point]	
CCC1(C)N=C(c2ccc3c(c2)OCO3)CC(c2ccccc2O)N1 (centres undefined)	inconclusive [inhibitor, single point]	
C[C@H]1CCC(=O)N([C@H](CSc2ccccc2)Cc2ccccc2)CC1	inconclusive [inhibitor, partial curve]	
COc1ccc2c(CC(=O)N(C)CC3COc4ccccc4O3)coc2c1 (centres undefined)	inconclusive [inhibitor, partial curve]	
CSc1ncc(C(=O)Nc2ccc(Cl)cc2)c(C)n1		inactive: -28.9%
COc1cccc(C2N(c3ccc(Cl)cc3)C(=O)C3CCCN32)c1 (centres undefined)		inactive: -2.53%
CC1CCCC12NC(=O)NC2=O (centres undefined)		inactive: 7.5%
COc1cccc(OCc2cc(C(=O)NC(C)c3cnn(C)c3C)no2)c1 (centres undefined)	inconclusive [inhibitor, single point]	
COc1ccc(NC(=O)CN2C(=O)c3cccc4cccc2c34)cc1OC	inconclusive [inhibitor, single point]	

SMILES	Potency	activity change, negative = inhibition
Cc1cccc(C)c1N(CC(=O)NC1CCCCC1)C(=O)c1csnn1		inactive: 27.1%
O=[N+]([O-])c1ccc(-c2c(O)c3ccccc3c3nc4ccccc4nc23)cc1	inconclusive [inhibitor, partial curve]	
CC1CCc2c(sc(NC(=O)c3ccco3)c2C(=O)O)C1 (centres undefined)	inconclusive [inhibitor, single point]	
COc1ccc(N(CC(=O)Nc2ccc(S(=O)(=O)N3CCOCC3)cc2)S(=O)(=O)c2ccc(F)cc2)cc1	active: 14.1 µM	
COc1ccccc1C(=O)NC(=S)N1CCc2ccccc21	inconclusive [inhibitor, single point]	
COc1ccc(NC(=O)c2c(Cl)n(C)c3ccccc23)cc1	inconclusive [inhibitor, partial curve, poor fit]	
Cc1cccc2c1-c1sc(C(=O)Nc3cccnc3)cc1CO2	active: 22.4 µM	
Nc1nonc1-n1nnc(C(=O)N/N=C/c2ccc(OCc3ccccc3F)cc2)c1CN1CCCCC1	inconclusive [inhibitor, single point]	
CCCCC(CC)CN1CN(CC(CC)CCCC)CC(C)(N)C1 (centres undefined)		inactive: 19.9%
COc1cc2c(cc1OC)C(=O)C(CC1CCN(Cc3ccccc3)CC1)C2 (centres undefined)	active: 1.41 µM	
OC1CCCN(CC(O)COc2ccc(-c3ccccc3)cc2)C1 (centres undefined)	inconclusive [inhibitor, partial curve]	
Cc1ccc(-n2cccn2)c(CN2CCCC(CNC(=O)c3ccc(F)cc3)C2)c1 (centres undefined)	inconclusive [inhibitor, single point]	
CCN(CC)CCN(Cc1cc2cc(C)c(C)cc2[nH]c1=O)C(=S)NCc1ccco1	inconclusive [inhibitor, single point]	
O=C(Cn1cncn1)N/N=C/c1c2ccccc2cc2ccccc12	inconclusive [inhibitor, single point]	
COc1ccccc1CN1CCN(C(CC(C)C)c2nnnn2Cc2cccs2)CC1 (centres undefined)	inconclusive [inhibitor, single point]	
Cc1cc(=O)[nH]c(SCC(=O)Nc2ccc(F)c([N+](=O)[O-])c2)n1	inconclusive [inhibitor, partial curve]	
O=C(CSC1=Nc2ccccc2C2=NC(CC(=O)N3CCN(c4ccccc4)CC3)C(=O)N12)NCC1CCCO1 (centres undefined)	inconclusive [inhibitor, single point]	
c1ccc(Cc2ccc(OCCn3ccnc3)cc2)cc1	active: 12.6 µM	
CCCCCc1ccc(CC(=O)Nn2c(C)nc3ccccc3c2=O)cc1	inconclusive [inhibitor, single point]	
Nc1ccccc1/C=C/c1ccccc1N	inconclusive [inhibitor, partial curve]	
CCCCN(C(=O)c1ccc(N2CCCC2=O)cc1)c1c(N)n(CCC)c(=O)[nH]c1=O		inactive: 5.81%
NC(N)=NCc1cccc(I)c1	active: 7.08 µM	
COc1cccc(C(=O)N2CCN(Cc3cn[nH]c3-c3ccc(F)cc3F)CC2)c1		inactive: -0.834%
